Measurements: the RNAGym collection of RNA variant scans (doi:10.1073/pnas.2313332121)
This sample is rich in variants without activity.

B1: TPR 5TU (parent)
chain: GGAUCUUCUCGAUCUAACAAAAAAGACAAAUCUGCCACAAAGCUUGAGAGCAUCUUCGGAUGCAGAGGCGGCAGCCUUCGGUGGCGCGAUAGCGCCAACGUUCUCAACUAUGACACGCAAAACGCGUGCUCCGUUGAAUGGAGUUUAUCAUG

Variants of: B1
Test: polymerase ribozyme fitness, log enrichment relative to wild type (log ratio); higher = more active; in vitro selection for triplet polymerase activity
In short: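 Mutant libraries were PCR-built and transcribed for each subunit of a heterodimeric triplet polymerase ribozyme and selected for one round in triplicate at −7 °C, frozen, before gel excision of extended constructs and streptavidin-bead capture. Input and output libraries were Illumina-sequenced, keeping genotypes with ≥10 input reads and ≥1 read per output. Fitness is a logarithmic ratio of genotype to wild-type enrichment, in base 2, using inverse-variance-weighted replicate averages.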

Row | Variant | polymerase ribozyme fitness (log ratio)
1 | A29U G58U C79G C99U G141C | ≤ -4.2
2 | A29U G58U U61A U82A G86A A119G | ≤ -4.2
3 | A29U G59A G140A | ≤ -4.2
4 | A29U G59C | ≤ -4.2
5 | A29U G59U C93U | ≤ -4.2
6 | A29U G65A C87A A91C U109G U146A A150G | ≤ -4.2
7 | A29U G67A G74C C79A A91C A107G U109A C116A G141U | ≤ -4.2
8 | A29U G68A G83A C103G | ≤ -4.2
9 | A29U G70U G71A C87U U90A A106U | ≤ -4.2
10 | A29U G74A C131A U148G | ≤ -4.2
11 | A29U G74U U90C C96U A120U | ≤ -4.2
12 | A29U G80A C85G A121U G140C | ≤ -4.2
13 | A29U G83A A97U U134G | ≤ -4.2
14 | A29U G83A C93A G152U | ≤ -4.2
15 | A29U G84A | ≤ -4.2
16 | A29U G84U | ≤ -4.2
17 | A29U G84U G94C U135G | ≤ -4.2
18 | A29U G84U U135A | ≤ -4.2
19 | A29U G86A A97G A142U G143A | ≤ -4.2
20 | A29U G86A C87U C105A C116A U146A | ≤ -4.2
21 | A29U G88C A106U | ≤ -4.2

Row | Variant | polymerase ribozyme fitness (log ratio)
22 | A29U G92C U102C C116U | ≤ -4.2
23 | A29U G92U | ≤ -4.2
24 | A29U G94U C149G | ≤ -4.2
25 | A29U G100C U151G | ≤ -4.2
26 | A29U U31A U56G A66G C96U C105A A138U | ≤ -4.2
27 | A29U U31G C72U G83C | ≤ -4.2
28 | A29U U31G U55A A64C G84A C125U | ≤ -4.2
29 | A29U U33A U102G A113U U144C | ≤ -4.2
30 | A29U U33C A52C G86A | ≤ -4.2
31 | A29U U33C G94U C105U U111C G136A | ≤ -4.2
32 | A29U U33G C38A C57G | ≤ -4.2
33 | A29U U33G U53C C85G C99U | ≤ -4.2
34 | A29U U44A U55G A66U G83C A106C U146G | ≤ -4.2
35 | A29U U44G G50C C79A G80C | ≤ -4.2
36 | A29U U45A G94C C105A A113U U130G U135G | ≤ -4.2
37 | A29U U45G C69U G70C C87A C114U | ≤ -4.2
38 | A29U U53A | -4.15
39 | A29U U53A G83A C93G | ≤ -4.2
40 | A29U U53A G92U G133U U134G | ≤ -4.2
41 | A29U U53A U102G G126A | ≤ -4.2
42 | A29U U53G A91U U127G | ≤ -4.2

Row | Variant | polymerase ribozyme fitness (log ratio)
43 | A29U U55A C114U A137U U139G A150C | ≤ -4.2
44 | A29U U55G C57U G67C A98G | ≤ -4.2
45 | A29U U56A C125G | ≤ -4.2
46 | A29U U61A G65U | ≤ -4.2
47 | A29U U61A G86A C99U U109C | ≤ -4.2
48 | A29U U78A C118U A142C | ≤ -4.2
49 | A29U U78G C79U G83C A98G G124U G141C | ≤ -4.2
50 | A29U U82A C87A A107U A115U A122U G124C U151A | ≤ -4.2
51 | A29U U101G U104G | ≤ -4.2
52 | A30C A37U A52C G92U C103A | ≤ -4.2
53 | A30C A37U A60U G88U A122U C125G | ≤ -4.2
54 | A30C A39U A60G | ≤ -4.2
55 | A30C A39U U44A U53A C93A | ≤ -4.2
56 | A30C A41C C43U U53A C93U C125U A137G | ≤ -4.2
57 | A30C A41C C57A G62C G92A C131G | ≤ -4.2
58 | A30C A41C G67C G83U G88U G141A | ≤ -4.2
59 | A30C A41G C51U U55A C85G | ≤ -4.2
60 | A30C A47U C57A C76G G86A C114A | ≤ -4.2
61 | A30C A49U C54A G58C G59A G143C | ≤ -4.2
62 | A30C A52C C85U C99A A115U C131U G141C | ≤ -4.2
63 | A30C A52C G83U G84C U135A G141C | ≤ -4.2

Row | Variant | polymerase ribozyme fitness (log ratio)
64 | A30C A52U A60G A64U A142G U146A | ≤ -4.2
65 | A30C A89U C95A A98G A107C | ≤ -4.2
66 | A30C A91C A98U A119U | ≤ -4.2
67 | A30C A97U G128A C132G | ≤ -4.2
68 | A30C C32G A41C A52G C87U A113C | ≤ -4.2
69 | A30C C35U G59A G88U G117A | ≤ -4.2
70 | A30C C36G U77G C116U C125U G133C | ≤ -4.2
71 | A30C C36U A121G G124C | ≤ -4.2
72 | A30C C54G C87U | ≤ -4.2
73 | A30C C54U C96G G141A | ≤ -4.2
74 | A30C C57U G58C G84C C87U | ≤ -4.2
75 | A30C C57U G59C G80A | ≤ -4.2
76 | A30C C57U G81C C87G A97U U109G G141A | ≤ -4.2
77 | A30C C63U A66C A73U C85A A91C U109G | ≤ -4.2
78 | A30C C75G C103G | ≤ -4.2
79 | A30C C75U C114U G126A G141C | ≤ -4.2
80 | A30C C76A C87G U151A | ≤ -4.2
81 | A30C C79A G88A A107G C116G A137G U144C | ≤ -4.2
82 | A30C C79U A91G C114U G136C | ≤ -4.2
83 | A30C C85U | -4.09
84 | A30C C87A | ≤ -4.2
